Measurements from paper PMC7852673.
No constants are given. Whether binding was seen depends on the method and setting. For part of these data: Binding seen in cells or lysates may run through a third protein. Some binding calls cover weakened binding; strength is not graded here. Sequences can lack the tags named with a protein.

Sequences of proteins named here, by UniProt entry; tags and fusion partners are left off.
UniProt Q96GD4: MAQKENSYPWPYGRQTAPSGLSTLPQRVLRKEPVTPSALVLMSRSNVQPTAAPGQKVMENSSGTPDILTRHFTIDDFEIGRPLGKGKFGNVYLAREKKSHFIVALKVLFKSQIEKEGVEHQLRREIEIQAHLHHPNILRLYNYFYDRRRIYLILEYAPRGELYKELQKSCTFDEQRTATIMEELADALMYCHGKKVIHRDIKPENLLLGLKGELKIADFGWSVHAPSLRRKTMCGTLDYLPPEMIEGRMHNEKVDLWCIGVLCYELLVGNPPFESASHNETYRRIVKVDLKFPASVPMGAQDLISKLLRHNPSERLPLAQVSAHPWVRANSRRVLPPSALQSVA

Legend:
[1] = biological target: T1, GFP-caspase-2-C320G (stably expressed in U2OS-CASP2-/- cells, sC320G) (mouse) (UniProt P29594); test: co-IP; GFP-Trap IP of GFP-caspase-2-C320G from asynchronous sC320G cells; NP-40 lysis buffer; 2 h at 4 °C; immunoblot for AURKB
T1 sequence: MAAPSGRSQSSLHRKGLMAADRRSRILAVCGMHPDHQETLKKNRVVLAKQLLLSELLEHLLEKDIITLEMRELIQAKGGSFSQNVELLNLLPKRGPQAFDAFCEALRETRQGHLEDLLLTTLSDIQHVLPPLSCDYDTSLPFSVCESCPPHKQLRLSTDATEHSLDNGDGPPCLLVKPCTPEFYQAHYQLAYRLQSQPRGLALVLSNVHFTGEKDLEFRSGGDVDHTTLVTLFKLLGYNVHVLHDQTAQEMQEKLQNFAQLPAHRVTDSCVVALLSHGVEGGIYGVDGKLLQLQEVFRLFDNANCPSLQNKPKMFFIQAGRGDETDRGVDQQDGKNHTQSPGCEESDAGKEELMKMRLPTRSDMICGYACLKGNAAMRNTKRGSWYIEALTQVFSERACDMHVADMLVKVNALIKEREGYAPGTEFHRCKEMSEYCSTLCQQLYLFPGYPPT

[2] = biological target: T1, GFP-caspase-2-C320G (stably expressed in U2OS-CASP2-/- cells, sC320G) (mouse); test: co-IP; GFP-Trap IP of GFP-caspase-2-C320G from mitotic sC320G cells (thymidine block, release, 100 ng/mL nocodazole 14 h, shake-off); NP-40 lysis buffer; 2 h at 4 °C; immunoblot for AURKB
[3] = biological target: T1, GFP-caspase-2-C320G (stably expressed in U2OS-CASP2-/- cells, sC320G) (mouse); test: condition: only cells treated with the AURKB inhibitor ZM447439 (2 µM, 24 h); co-IP; GFP-Trap IP of GFP-caspase-2-C320G from sC320G cells treated with the AURKB inhibitor ZM447439 (2 µM, 24 h); NP-40 lysis buffer; 2 h at 4 °C; immunoblot for AURKB
[4] = biological target: T2, GST-Casp2-C320G (GST-Casp2 full-length) (mouse) (UniProt P29594); test: pull-down; GST pull-down: 1 µg GST fusion incubated with 500 ng His-AURKB in 50 mM Tris-HCl, 10 mM MgCl2, 0.1 mM EDTA, 0.01% Brij 35, pH 7.5, 2 h at room temperature; captured on glutathione-agarose beads; four washes; immunoblot; both purified
T2 sequence: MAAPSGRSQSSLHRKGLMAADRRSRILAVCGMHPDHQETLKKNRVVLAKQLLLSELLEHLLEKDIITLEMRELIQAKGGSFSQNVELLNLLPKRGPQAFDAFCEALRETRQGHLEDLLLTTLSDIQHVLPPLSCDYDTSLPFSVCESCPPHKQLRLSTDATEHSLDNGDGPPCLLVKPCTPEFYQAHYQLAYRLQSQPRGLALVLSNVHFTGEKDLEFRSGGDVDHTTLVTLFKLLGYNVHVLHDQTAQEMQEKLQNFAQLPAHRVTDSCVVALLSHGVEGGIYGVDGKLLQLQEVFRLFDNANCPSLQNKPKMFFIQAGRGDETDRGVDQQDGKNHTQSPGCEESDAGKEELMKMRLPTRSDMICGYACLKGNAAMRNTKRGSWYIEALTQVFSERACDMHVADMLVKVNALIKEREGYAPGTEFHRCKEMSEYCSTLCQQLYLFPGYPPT

[5] = biological target: T3, GST-Casp2_(363–423)-WT (mouse) (UniProt P29594); test: as above
T3 sequence: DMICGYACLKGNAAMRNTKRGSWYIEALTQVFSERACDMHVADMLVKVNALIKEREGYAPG

[6] = biological target: caspase-2-S384E BiFC constructs (pBiFC-HA-Casp2(S384E)-VC155 and pBiFC-HA-Casp2(S384E)-VN173) (mouse) (UniProt P29594); test: split reporter; BiFC (VN173 + VC155 Venus fragments) in U2OS-CASP2-/- cells with 20 µM z-VAD; DMSO or 100 nM BI2536 for 24 h; fixed cells, confocal microscopy, BiFC-positive cells counted

Question: Which results are given for “AURKB (endogenous, U2OS cells) (from UniProt Q96GD4 1-344) (enzyme)”?
Answer: binding [1]: no binding (condition: asynchronous cells); binding [2]: binds; binding [3]: no binding

Question: Which results are given for “His-AURKB (recombinant human Aurora B kinase) (from UniProt Q96GD4 1-344) (enzyme)”?
Answer: binding [4]: binds; binding [5]: binds

B1: caspase-2-S384E BiFC constructs (pBiFC-HA-Casp2(S384E)-VC155 and pBiFC-HA-Casp2(S384E)-VN173) (enzyme, UniProt P29594 1-452)
chain: MAAPSGRSQSSLHRKGLMAADRRSRILAVCGMHPDHQETLKKNRVVLAKQLLLSELLEHLLEKDIITLEMRELIQAKGGSFSQNVELLNLLPKRGPQAFDAFCEALRETRQGHLEDLLLTTLSDIQHVLPPLSCDYDTSLPFSVCESCPPHKQLRLSTDATEHSLDNGDGPPCLLVKPCTPEFYQAHYQLAYRLQSQPRGLALVLSNVHFTGEKDLEFRSGGDVDHTTLVTLFKLLGYNVHVLHDQTAQEMQEKLQNFAQLPAHRVTDSCVVALLSHGVEGGIYGVDGKLLQLQEVFRLFDNANCPSLQNKPKMFFIQACRGDETDRGVDQQDGKNHTQSPGCEESDAGKEELMKMRLPTRSDMICGYACLKGNAAMRNTKRGEWYIEALTQVFSERACDMHVADMLVKVNALIKEREGYAPGTEFHRCKEMSEYCSTLCQQLYLFPGYPPT
Question: How did the binding [6] turn out when B1 was run?
Answer: binds
